Source: the supplement of paper PMC4604168 (melanoma cell lines)
This is one part of the list. Most values come without repeats; read them as rough.

What was measured:
Assay in all cases: cell count relative to DMSO control; melanoma cells; higher = more viable cells
Conditions in all cases: library dose: low library concentration; 72 h
MZ2-MEL = system: MZ2-MEL
MeWo = system: MeWo
RPMI7951 = system: RPMI7951
RVH-421 = system: RVH-421
SkMel28 = system: SkMel28
SkMel2 = system: SkMel2
SkMel30 = system: SkMel30
SkMel5 = system: SkMel5
UACC257 = system: UACC257
UACC62 = system: UACC62
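Further: cell number obtained by counting DAPI-stained nuclei in high-throughput microscope images with image analysis software, screen run in 1,536-well plates.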

Row | Structure (SMILES) | cell count (MZ2-MEL) | cell count (MeWo) | cell count (RPMI7951) | cell count (RVH-421) | cell count (SkMel28) | cell count (SkMel2) | cell count (SkMel30) | cell count (SkMel5) | cell count (UACC257) | cell count (UACC62)
1 | Clc1ccc(Nc2nnc(Cc3ccncc3)c3ccccc23)cc1 [vatalanib] + CCCCCCCCCCCC1=C(O)C(=O)C=C(O)C1=O [Embelin] (first compound 2 µM, partner dose 1.2 µM) | 96.9% | 90.8% | 94.3% | 104% | 82.1% | 103% | 113% | 81.2% | 82.9% | 88.8%
2 | OCc1c[nH]c2ccccc12 [Indole-3-carbinol] + COc1cc(N2CCC(N3CCN(C)CC3)CC2)ccc1Nc1ncc(Cl)c(Nc2ccccc2S(=O)(=O)C(C)C)n1 [NVP-TAE684] (first compound 0.8 µM, partner dose 0.08 µM) | 93.9% | 89.9% | 82.2% | 101% | 85.5% | 88.9% | 86.1% | 89.8% | 87.2% | 99.8%
3 | OCc1c[nH]c2ccccc12 [Indole-3-carbinol] + O=C(Nc1ccccc1)c1cc([N+](=O)[O-])ccc1Cl [GW9662] (first compound 0.8 µM, partner dose 2 µM) | 95.7% | 99.3% | 104% | 105% | 89.1% | 101% | 105% | 107% | 100% | 84.2%
4 | COCC[n+]1c2c(n(Cc3cnccn3)c1C)C(=O)c1ccccc1C2=O + CC(C)(C)c1cnc(CSc2cnc(NC(=O)C3CCNCC3)s2)o1 [SNS-032] (first compound 0.0004 µM, partner dose 0.01 µM) | 46.8% | 91.5% | 67.4% | 101% | 79.3% | 80.5% | 89.5% | 68.4% | 136% | 76.8%
5 | COCC[n+]1c2c(n(Cc3cnccn3)c1C)C(=O)c1ccccc1C2=O + Cn1cncc1[C@@](N)(c1ccc(Cl)cc1)c1ccc2c(c1)c(-c1cccc(Cl)c1)cc(=O)n2C [tipifarnib] (first compound 0.0004 µM, partner dose 0.01 µM) | 50.7% | 86.4% | 79.9% | 92.5% | 81.4% | 76.7% | 81.9% | 61.9% | 109% | 85.8%
6 | O=C(CCCCCCC(=O)Nc1ccccc1)NO [vorinostat] + CN(C)S(=O)(=O)c1ccc2c(c1)/C(=C/c1cc3c([nH]1)CCCC3)C(=O)N2 [SU6656] (first compound 0.08 µM, partner dose 0.4 µM) | 99.8% | 86% | 95.9% | 109% | 82.6% | 105% | 107% | 100% | 106% | 81.2%
7 | O=C(CCCCCCC(=O)Nc1ccccc1)NO [vorinostat] + CN(NC(=O)CC(=O)NN(C)C(=S)c1ccccc1)C(=S)c1ccccc1 [STA4783] (first compound 0.08 µM, partner dose 0.006 µM) | 102% | 92.7% | 93.5% | 101% | 104% | 80.9% | 78.5% | 77.5% | 130% | 82%
8 | C#Cc1cccc(Nc2ncnc3cc(OCCOC)c(OCCOC)cc23)c1 [erlotinib] + CC1(C)NC(=O)N(c2ccc([N+](=O)[O-])c(C(F)(F)F)c2)C1=O [nilutamide] (first compound 0.8 µM, partner dose 1 µM) | 93.5% | 84.5% | 96.9% | 94% | 80.2% | 104% | 93.7% | 104% | 75.4% | 88.8%
9 | C#Cc1cccc(Nc2ncnc3cc(OCCOC)c(OCCOC)cc23)c1 [erlotinib] + Cn1cncc1[C@@](N)(c1ccc(Cl)cc1)c1ccc2c(c1)c(-c1cccc(Cl)c1)cc(=O)n2C [tipifarnib] (first compound 0.8 µM, partner dose 0.01 µM) | 91.2% | 81% | 88.7% | 70.7% | 74.5% | 90.9% | 81.1% | 126% | 55.3% | 56.6%
10 | COCC[n+]1c2c(n(Cc3cnccn3)c1C)C(=O)c1ccccc1C2=O + O=C(CCCCCCC(=O)Nc1ccccc1)NO [vorinostat] (first compound 0.0004 µM, partner dose 0.08 µM) | 45.2% | 86.5% | 83.6% | 81.6% | 83.3% | 85.3% | 101% | 69.3% | 67.1% | 96.5%
11 | Clc1ccc(Nc2nnc(Cc3ccncc3)c3ccccc23)cc1 [vatalanib] + CC(C)CCN1c2nc(Nc3cc(F)c(O)c(F)c3)ncc2N(C)C(=O)C1C [BID1870] (first compound 2 µM, partner dose 0.2 µM) | 98.3% | 79.5% | 96.9% | 75.9% | 76.5% | 101% | 115% | 85.8% | 79.8% | 80.7%
12 | Nc1cccc2c1CN(C1CCC(=O)NC1=O)C2=O (stereo not given) [lenalidomide] + Cc1cc(N2CCOCC2)cc2[nH]c(-c3c(NC[C@@H](O)c4cccc(Cl)c4)cc[nH]c3=O)nc12 [BMS536924] (first compound 1 µM, partner dose 0.2 µM) | 97.4% | 88.4% | 95.7% | 85.6% | 87.9% | 84% | 96.8% | 95.2% | 88.1% | 89.2%
13 | COCC[n+]1c2c(n(Cc3cnccn3)c1C)C(=O)c1ccccc1C2=O + OCCn1cc(-c2cnc3nnn(Cc4ccc5ncccc5c4)c3n2)cn1 [PF04217903] (first compound 0.0004 µM, partner dose 1 µM) | 52.8% | 107% | 84% | 136% | 93.2% | 95.1% | 99.1% | 66.7% | 93.4% | 93.2%
14 | Clc1ccc(Nc2nnc(Cc3ccncc3)c3ccccc23)cc1 [vatalanib] + O=S(=O)(c1ccccc1)N(CC(F)(F)F)c1ccc(C(O)(C(F)(F)F)C(F)(F)F)cc1 [T0901317] (first compound 2 µM, partner dose 1.4 µM) | 87.8% | 82.3% | 92% | 101% | 93.3% | 105% | 102% | 81% | 90.6% | 104%
15 | Nc1cccc2c1CN(C1CCC(=O)NC1=O)C2=O (stereo not given) [lenalidomide] + O=C(O)c1ccc(-c2c[nH]c3ncc(-c4ccccc4)cc23)cc1C1CCCC1 [GSK650394] (first compound 1 µM, partner dose 0.16 µM) | 103% | 87.6% | 110% | 105% | 109% | 102% | 115% | 104% | 92.2% | 103%
16 | Cn1c(Nc2ccc(C(F)(F)F)cc2)nc2cc(Oc3ccnc(-c4ncc(C(F)(F)F)[nH]4)c3)ccc21 + CN(C)S(=O)(=O)c1ccc2c(c1)/C(=C/c1cc3c([nH]1)CCCC3)C(=O)N2 [SU6656] (first compound 0.08 µM, partner dose 0.4 µM) | 70.6% | 51% | 60.1% | 66% | 49.6% | 76.6% | 41.2% | 65.1% | 54.7% | 47.6%
17 | Nc1cccc2c1CN(C1CCC(=O)NC1=O)C2=O (stereo not given) [lenalidomide] + NC(=O)Nc1cc(-c2cccc(F)c2)sc1C(=O)N[C@H]1CCCNC1 [AZD7762] (first compound 1 µM, partner dose 0.02 µM) | 108% | 107% | 99.1% | 106% | 112% | 103% | 106% | 97.5% | 107% | 82.5%
18 | Clc1ccc(Nc2nnc(Cc3ccncc3)c3ccccc23)cc1 [vatalanib] + CC(C)(C)c1cnc(CSc2cnc(NC(=O)C3CCNCC3)s2)o1 [SNS-032] (first compound 2 µM, partner dose 0.01 µM) | 90.8% | 90.9% | 70% | 84.3% | 78.4% | 88.3% | 101% | 94.6% | 66.2% | 77.9%
19 | OCc1c[nH]c2ccccc12 [Indole-3-carbinol] + O=C(CCCCCCC(=O)Nc1ccccc1)NO [vorinostat] (first compound 0.8 µM, partner dose 0.08 µM) | 98% | 91.2% | 100% | 104% | 86.2% | 107% | 149% | 93.6% | 85.3% | 101%
20 | C#Cc1cccc(Nc2ncnc3cc(OCCOC)c(OCCOC)cc23)c1 [erlotinib] + NCC(=O)Nc1ccc(-n2nc(C(F)(F)F)cc2-c2ccc3c(ccc4ccccc43)c2)cc1 [OSU03012] (first compound 0.8 µM, partner dose 1 µM) | 91.1% | 60.4% | 102% | 96.2% | 89.3% | 81.9% | 65.7% | 92.8% | 75.4% | 82.9%
21 | OCc1c[nH]c2ccccc12 [Indole-3-carbinol] + COc1ccc2c(c1)CCC1C2CCC2(C)C(NCCCCCCN3C(=O)C=CC3=O)CCC12 [U73122] (first compound 0.8 µM, partner dose 0.4 µM) | 96.7% | 105% | 76.2% | 88.5% | 103% | 106% | 84.2% | 94.4% | 106% | 96.6%
22 | Clc1ccc(Nc2nnc(Cc3ccncc3)c3ccccc23)cc1 [vatalanib] + O=C(CCCCCCC(=O)Nc1ccccc1)NO [vorinostat] (first compound 2 µM, partner dose 0.08 µM) | 99.9% | 79.3% | 101% | 113% | 88.2% | 82.5% | 101% | 78.8% | 96.4% | 103%
23 | Cn1c(Nc2ccc(C(F)(F)F)cc2)nc2cc(Oc3ccnc(-c4ncc(C(F)(F)F)[nH]4)c3)ccc21 + CC(C)(C)c1cnc(CSc2cnc(NC(=O)C3CCNCC3)s2)o1 [SNS-032] (first compound 0.08 µM, partner dose 0.01 µM) | 73.4% | 62.9% | 53.1% | 61.9% | 48.4% | 75.5% | 58.7% | 66.3% | 39.1% | 42.5%
24 | Nc1cccc2c1CN(C1CCC(=O)NC1=O)C2=O (stereo not given) [lenalidomide] + C[C@@H]1CCN(C(=O)CC#N)C[C@@H]1N(C)c1ncnc2[nH]ccc12 [CP690550] (first compound 1 µM, partner dose 1 µM) | 103% | 101% | 96.7% | 97.2% | 95.4% | 94.7% | 94.2% | 108% | 102% | 111%
